Measured values taken from PubChem BioAssay AID1466 (National Center for Advancing Translational Sciences (NCATS), 2008).
Screen size: about 200,000 compounds; about 10 (0.005%) were called active. Inconclusive results, whose numbers are uncertain, are shown with a selection of clear calls. Calls come from the whole dose curve; as a rule, active = well fitted inhibition curve with a large enough effect; inconclusive = small, poorly fitted or top-dose-only effect, or effect the other way, or another doubt; inactive = no such curve, though single readings can be large or run the other way. A potency beside an inconclusive call is a rough fit, not a confirmed value.

target: Lysosomal alpha-glucosidase (Homo sapiens) (UniProt P10253); experiment: qHTS Assay for Inhibitors of Human alpha-Glucosidase as a Potential Chaperone Treatment of Pompe Disease; settings: purified human GAA, 4-MU-alpha-glucoside fluorescence; activity change, negative = inhibition: at 76.9 µM (top of the series) unless noted;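 for activity change, negative = inhibition: plate controls were uninhibited enzyme wells for no effect and no-enzyme background for full effect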
In short: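 Human enzyme at 4 nM with 400 uM 4-methylumbelliferyl-alpha-D-pyranoside, citrate/phosphate buffer pH 5.0, 0.005% Tween-20, 20 min at room temperature. Compounds up to 77 uM. 4-MU fluorescence (Ex 365/Em 440) read after NaOH/glycine stop; AC50 from Hill fit.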
Potency is the fitted concentration of half-maximal effect; tags give direction and shape of the fitted curve.

Structure (SMILES)	Potency	activity change, negative = inhibition
COc1ccc(OC)c(S(=O)(=O)NCc2cn3ccsc3n2)c1	inconclusive: 5.01 µM [inhibitor, single point]	–
Cc1ccc(C(=O)Nc2cnc3ccccn3c2=O)cc1	–	inconclusive: -17.6% [inhibitor]
O=C(CNC(=S)NC(=O)C1CCCCC1)c1ccccc1	inconclusive: 10 µM [inhibitor, full curve, poor fit]	–
CCN(c1ccccc1)S(=O)(=O)c1ccc(OC)c(NC(=O)Cn2cnc3c2c(=O)n(C)c(=O)n3C)c1	inconclusive: 39.8 µM [inhibitor, single point]	–
Clc1nc2sccn2c1/C=N/n1cnc2ccccc21	inconclusive: 28.2 µM [activator, single point]	–
CCCn1c(SCc2nc(-c3cccs3)no2)nnc1-c1ccncc1	inconclusive: 56.2 µM [inhibitor, single point]	–
Cc1cc(C)c(C#N)c(SCc2ccc([N+](=O)[O-])cc2)n1	inconclusive: 0.398 µM [inhibitor, full curve, poor fit]	–
O=C(COc1ccccc1)Nc1cccc(-c2nc3cc4ccccc4cc3[nH]2)c1	inconclusive: 17.8 µM [activator, partial curve]	–
CCN(C1CCCCC1)S(=O)(=O)c1ccc(S(=O)(=O)N2CCN(CCC#N)CC2)cc1	inconclusive: 0.355 µM [inhibitor, full curve, poor fit]	–
CC(C)c1ccccc1NC(=S)NN(Cc1ccccc1)c1ccccc1	inconclusive: 50.1 µM [inhibitor, single point]	–
CC(=O)/C(=C/c1ccc(N(C)C)cc1)C(=O)c1ccccc1	inconclusive: 35.5 µM [inhibitor, single point]	–
O=C(CCN1C(=O)COc2ccccc21)NCc1ccco1	inconclusive: 56.2 µM [inhibitor, single point]	–
COc1ccc(N/N=C(/N=Nc2nc(C)cc(=O)[nH]2)c2ccccc2)cc1	–	inconclusive: -22.5% [inhibitor]
C=CCNC(=O)c1ccccc1NC(=O)COc1ccccc1	–	inconclusive: 15.5% [activator]
Cc1ccccc1C(=O)N1CCC(C(=O)Nc2ccc(S(=O)(=O)N(C)C(C)C)cc2)CC1	inconclusive: 31.6 µM [inhibitor, partial curve]	–
CCOc1ccc(C(=O)Nc2ccc(N3CCN(S(C)(=O)=O)CC3)cc2)cc1[N+](=O)[O-]	–	inconclusive: 23.1% [activator]
COc1cccc(CN2CCN(CC(=O)Nc3ccccc3Cl)CC2)c1	inconclusive: 3.98 µM [inhibitor, single point]	–
O=C1OCC(CO)(CO)N=C1NNc1ccccc1Cl	inactive	–
C=CCn1c(CCNC(=O)c2cccs2)nnc1SCC(=O)Nc1cccc(C(C)=O)c1	inconclusive: 6.31 µM [inhibitor, single point]	–
Cc1occc1C(=O)NCCCc1ccccc1	inconclusive: 4.47 µM [inhibitor, partial curve]	–
CCOC(=O)c1ccc(NC(=O)CC2OCCN(CC)C2=O)cc1 (centres undefined)	inconclusive: 1.26 µM [inhibitor, full curve, poor fit]	–
CC(C)(C)n1nnnc1C(c1cccnc1)N1CCOCC1 (centres undefined)	inactive	–

Structure (SMILES)	Potency	activity change, negative = inhibition
COc1ccc2c(C)c(Cc3ccccc3)c(=O)oc2c1OC	inconclusive: 31.6 µM [inhibitor, partial curve]	–
O=C(COC(=O)c1n[nH]c2ccccc12)Nc1ccc(Cl)cc1[N+](=O)[O-]	–	inconclusive: 9.26% [activator]
CC1=CS/C(=C(/C#N)C(=O)N2CCCCC2)N1c1ccccc1	inconclusive: 3.55 µM [inhibitor, single point]	–
Cc1ccc(-c2csc3nc(CSc4nnc(-c5ccc(Cl)cc5)n4C)[nH]c(=O)c23)cc1	inconclusive: 50.1 µM [inhibitor, single point]	–
FC(F)C(F)(F)C1=CC(c2ccccc2)=NCCN1	–	inconclusive: -20.7% [inhibitor]
COc1ccc(C2(NC(C)=O)CCN(C(=O)c3cccs3)CC2)cc1	inconclusive: 3.98 µM [inhibitor, single point]	–
CN(C)c1cccc2cccc(N(C)C)c12	inconclusive: 0.891 µM [inhibitor, single point]	–
Cn1c(=O)[nH]c(=O)c2c1nc(NCCCO)n2Cc1ccc(F)cc1	–	inconclusive: 16.9% [activator]
O=C(NCCn1cc(SCc2ccccc2)c2ccccc21)c1c(F)cccc1F	inactive	–
CCCCN(C(=O)NC(=O)C1=C(N2CCOCC2)/C(=C/c2ccccc2)CC1)S(C)(=O)=O	inconclusive: 31.6 µM [activator, partial curve]	–
Nc1nc2ccccc2nc1N	inconclusive: 50.1 µM [activator, single point]	–
Cc1ccc(-n2c(N)c(C(=O)N3CCN(C)CC3)sc2=S)cc1	inactive	–
C=C(C)C1Cc2cc3ccc(=O)oc3cc2O1 (centres undefined)	inconclusive: 22.4 µM [activator, single point]	–
CC1CCC2(CC1)NC(=O)N(CC(=O)Nc1ccccc1-c1ccccc1)C2=O (centres undefined)	inconclusive: 28.2 µM [inhibitor, partial curve]	–
COC(=O)c1ccc(CSc2ccc3nnc(-c4ccccc4)n3n2)o1	inconclusive: 12.6 µM [inhibitor, single point]	–
Cn1c(=O)c2cc(S(=O)(=O)NCCC(=O)N3CC=C(c4ccccc4)CC3)ccc2n(C)c1=O	inconclusive: 56.2 µM [inhibitor, single point]	–
COC(=O)c1sccc1NC(=S)N(C)C1CCCCC1	inconclusive: 0.178 µM [inhibitor, full curve, poor fit]	–
Cc1cc(C(=O)OCC(=O)NCc2ccco2)c(C)n1-c1ccc(F)cc1	inconclusive: 22.4 µM [inhibitor, partial curve]	–
O=S(=O)(NCCCO)c1ccc2c(c1)Cc1cc(S(=O)(=O)NCCCO)ccc1-2	inconclusive: 0.282 µM [inhibitor, full curve, poor fit]	–
CC1(C)Cc2c(C#N)c(NC3CCCCC3)nc(-c3ccco3)c2CO1	inconclusive: 28.2 µM [activator, partial curve]	–
Cc1ccc(-n2ncc3c(=O)n(CC(=O)OCc4ccccc4)cnc32)cc1	inconclusive: 28.2 µM [inhibitor, single point]	–
Cc1ccc(S(=O)(=O)N(C)CC(=O)O/N=C(\N)c2ccc([N+](=O)[O-])cc2)cc1	inconclusive: 11.2 µM [inhibitor, partial curve]	–

Structure (SMILES)	Potency	activity change, negative = inhibition
Cc1ccc2nc3ccc(N4CCCC4)nn3c(=O)c2c1	inconclusive: 12.6 µM [inhibitor, partial curve, poor fit]	–
CN(C)c1nc(=S)nc(NCc2ccccc2)[nH]1	inconclusive: 31.6 µM [inhibitor, single point]	–
CCC(C)NC(=O)c1cc2cc3ccc(OC)cc3nc2s1 (centres undefined)	inconclusive: 35.5 µM [activator, partial curve]	–
CCn1nc(C(=O)O)c(=O)c2cc3c(cc21)OCO3	–	inconclusive: -14.2% [inhibitor] [at 15.4 µM]
Cc1nn(-c2ccccc2)c(Cl)c1C(=O)OC(C)C(=O)NC(=O)NC1CCCCC1 (centres undefined)	inconclusive: 0.178 µM [inhibitor, full curve, poor fit]	–
Cc1noc(C)c1C(=O)N(CC(=O)NC1CCCC1)Cc1ccccc1F	–	inconclusive: -19.4% [inhibitor]
Cn1c(-c2ccc(Cl)cc2)ccc(C#N)c1=O	inconclusive: 56.2 µM [inhibitor, single point]	–
CCCOc1ccc([C@@H]2C3CN(C(=O)OCC)CC=C3C(C#N)=C(N)C2(C#N)C#N)cc1OC (some centres undefined)	inconclusive: 0.178 µM [inhibitor, full curve, poor fit]	–
CC(C(=O)O)c1ccc(N2Cc3ccccc3C2=O)cc1 (centres undefined)	inconclusive: 0.178 µM [inhibitor, full curve, poor fit]	–
COc1ccc(OC)c(NC(=O)NC2(C(F)(F)F)Oc3ccccc3O2)c1	inactive	–
O=C(Nc1nccs1)c1cccc(S(=O)(=O)N2CCCCC2)c1	inconclusive: 28.2 µM [inhibitor, partial curve, poor fit]	–
CN(C(=O)CSc1nc(-c2ccccc2)cn1N)C(c1ccccc1)c1ccccc1	inconclusive: 0.891 µM [inhibitor, full curve, poor fit]	–
CC(OC(=O)c1ccccc1NCc1ccco1)C(=O)Nc1ncc(Cl)cc1Cl (centres undefined)	inconclusive: 31.6 µM [activator, single point]	–
CCC(C)(C)n1nnnc1C(c1ccc(F)cc1)N1CCC(C(N)=O)CC1 (centres undefined)	–	inconclusive: 16% [activator]
CCN(CC)S(=O)(=O)c1ccc(NC(=O)CCC2CCCCC2)cc1	–	inconclusive: -15.9% [inhibitor]
COc1ccc(/C=N/NC(=O)c2ccc(CN3c4cccc5cccc(c45)S3(=O)=O)cc2)cc1	inconclusive: 56.2 µM [activator, single point]	–
CC(C)(C)C(=O)Nc1sc2c(c1-c1nc3ccccc3[nH]1)CCCC2	inconclusive: 44.7 µM [activator, single point]	–
Cn1c(=O)cc(OCCCC(=O)N2CCN(c3ccccc3)CC2)c2ccccc21	inconclusive: 11.2 µM [inhibitor, single point]	–
COCCCNC(=S)NCCNc1nc2cc(C)c(C)cc2cc1C#N	inactive	–
O=C(OCC(=O)c1c[nH]c2ccccc12)c1ccc(Br)o1	inconclusive: 50.1 µM [inhibitor, single point]	–
